PubChem BioAssay (NCATS)
This list was built around the results that the source calls inconclusive (neither active nor inactive); the mix of calls is not that of the screen. A call without a number means that no potency is given here. Where the call is inconclusive, the potency comes from a doubtful curve fit. The source made the active and inactive calls. Calls follow the shape of the dose curve; as a rule, active = well fitted inhibition curve with a large enough effect; inconclusive = small, poorly fitted or top-dose-only effect; inactive = no such curve, though single readings can be large or run the other way.

What follows are compounds tested against Chromobox protein homolog 1 (Homo sapiens) (UniProt P83916) (assay: qHTS Validation Assay for Inhibitors of HP1-beta Chromodomain Interactions with Methylated Histone Tails (AID 488953; also: nearly all actives have a fitted effect of over 50% in size)). Settings: HP1-beta chromodomain / methylated histone peptide binding assay; series mostly up to 114 µM.
Excerpt: As our understanding of epigenetics expands, it is becoming clear that players in this field are potential targets for drug development. This area of epigenetic therapy has established applications for the treatment of cancer and neurological diseases. We have been involved in this field for a number of years and have performed high-throughput screens to identify the first small molecule inhibitors of protein methyltransferases. These methyltransferases target multiple substrates, and thus regulate many arms of an epigenetic pathway. The methylation of different substrates often generates docking sites for effector proteins that harbor binding domains (chromo, tudor, PHD, MBT and ANK repeats).
It has been proposed that the binding sites generated for different proteins by these post-translational modifcations mediate downstream effects on chromatin. Consistent with this theory, di- and tri-methylation of histone H3K9 facilitates the binding of heterochromatin protein HP1. The HP1 protein harbors a chromodomain that is responsible for the methyl-dependent interaction between HP1 and lysine 9 of histone H3. HP1 was first described in flies as a heterochromatin associated protein that can regulate gene silencing. It harbors a chromodomain that binds H3K9me3. In addition, it harbors a chromoshadow domain that interacts with a large number of proteins that are involved in heterochromatin formation and gene repression. There are three highly related HP1 isoforms. All three variants are associated with pericentric heterochromatin and it is not clear whether they have specific or redundant functions. MPP8 is also involved in the repression of gene in euchromatic regions (unpublished data) and like HP1 its chromodomain binds H3K9me3. MPP8 harbors an ankyrin repeat region that is likely involved in binding and recruiting interacting proteins with transcriptional repressive function, much like the chromoshadow domain of HP1 does.
We hypothesize that by inhibiting specific protein-protein interactions we will be able to develop compounds that block a single arm of an epigenetic pathway. The specificity attained by blocking a single protein-protein interaction will be far greater than that attained by blocking the enzyme that regulates one of many interactions.
Low-affinity protein-protein interactions (Kd in the single- to double-digit micromolar range) such as those discussed here have been very difficult to assay by traditional techniques such as fluorescence polarization or fluorescence resonance energy transfer. We have developed a sensitive chemiluminescence-based assay (Quinn, et al. 2009), which serves as the starting point for this project.
The following is a validation assay to identify lead compounds that can block methyl-dependent protein-protein interactions (specifically HP1-beta), which can be used as probes to analyze these methyl-driven interactions and perhaps even developed into targeted epigenetic therapies.
Assay Provider: Mark T. Bedford, MD Anderson
Screening Center PI: Austin, C.P.
Screening Center: NIH Chemical Genomics Center [NCGC]
To each well, 2 uL of HP1-beta protein (final 50 nM) and 1 uL biotinylated histone peptide trimethylated at Lys9 [b-H3(1-18)K9me3] (final 50 nM) was added in 1x PBS buffer, pH 7.4, containing 0.01% Tween-20 using a nanoliter dispenser. Formation of a protein-peptide complex proceeded at room temperature for 30 min. A Kalypsys pin-tool was employed to transfer 23 nL of library compound solution in DMSO to each well. Aurintricarboxylic acid (ATA) was used as an intraplate control with a 12-point titration in duplicate. Following a 30 min incubation of the protein-peptide complex with compounds at room temperature, a mixture of 40 ug/mL each streptavidin-coated donor and nickel chelate acceptor AlphaScreen beads (final 10 ug/mL) was added in a 1 uL dispense for a final volume of 4 uL. Plates were incubated protected from the light for 30 min at room temperature. […]
Potency is read from the fitted curve at half-maximal effect; tags tell the direction and shape of the fitted curve.

Sequence of UniProt P83916 (P83916 whole entry, looked up): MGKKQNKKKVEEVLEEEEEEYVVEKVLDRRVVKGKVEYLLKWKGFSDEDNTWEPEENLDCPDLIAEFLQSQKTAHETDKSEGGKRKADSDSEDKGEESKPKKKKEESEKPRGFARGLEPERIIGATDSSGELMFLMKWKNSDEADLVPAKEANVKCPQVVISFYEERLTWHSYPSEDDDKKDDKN

Compound | Potency
CC(C)(Sc1ccc(CCN(CCCCC2CCCCC2)C(=O)NC2CCCCC2)cc1)C(=O)O | active: 56.2 µM
O=c1[nH]cnc2[nH]ncc12 | inactive
COc1cc2nc(N(C)CCCNC(=O)C3CCCO3)nc(N)c2cc1OC (stereo not given) | inactive
CC(C)(Oc1ccc(C2CC2(Cl)Cl)cc1)C(=O)O (stereo not given) | inactive
CN1CCN2c3ccccc3Cc3ccccc3C2C1 (stereo not given) | inconclusive: 39.8 µM [inhibitor, partial curve]
COc1nc(C)nc(Cl)c1NC1=NCCN1 | inactive
Clc1cccc(Cl)c1NC1=NCCN1 | inactive
C1COC(NC(C2CC2)C2CC2)=N1 | inconclusive: 0.189 µM [inhibitor, full curve, poor fit]
CCN1CCCC1CNC(=O)c1cc(S(=O)(=O)CC)c(N)cc1OC (stereo not given) | inactive
COc1cc2nc(N3CCN(C(=O)C4COc5ccccc5O4)CC3)nc(N)c2cc1OC (stereo not given) | inconclusive: 89.1 µM [inhibitor, single point]
Cc1cc(C(C)(C)C)cc(C)c1CC1=NCCN1 | inactive
Fc1ccc([C@@H]2CCNC[C@H]2COc2ccc3c(c2)OCO3)cc1 | inconclusive: 44.7 µM [inhibitor, partial curve]
NCCCC(N)(C(=O)O)C(F)F (stereo not given) | inconclusive: 63.1 µM [inhibitor, partial curve, poor fit]
c1ccc([C@H]2CN3CCSC3=N2)cc1 | inactive
COc1ccc2c(c1)c(CC(=O)O)c(C)n2C(=O)c1ccc(Cl)cc1 | inactive
